Each structure is given as a SMILES string. Whole data set: some 110,000 compounds, median “z-score” near -0.1, cut for the highest 2% near 2. This is one part of the list. Calls of active or inactive are those of the source.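 How the source made its calls: active means z-score in the third read window above 3 or below -3; inactive means the rest.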

The experiment has as its target Metabotropic glutamate receptor 8 (Rattus norvegicus) (UniProt P70579). Put plainly: mGluR8 Gi/Go-coupled signaling modulation – cell-based, rat, thallium flux, HTS, primary screen (AID 488969). Conditions: HEK293 rat mGluR8, GIRK (G protein-gated inwardly rectifying potassium channel) thallium flux, FluoZin2; at 10 µM; stronger effect = higher value; submaximal glutamate (EC20) added with thallium.
UniProt P70579, sequence (P70579 whole entry, looked up): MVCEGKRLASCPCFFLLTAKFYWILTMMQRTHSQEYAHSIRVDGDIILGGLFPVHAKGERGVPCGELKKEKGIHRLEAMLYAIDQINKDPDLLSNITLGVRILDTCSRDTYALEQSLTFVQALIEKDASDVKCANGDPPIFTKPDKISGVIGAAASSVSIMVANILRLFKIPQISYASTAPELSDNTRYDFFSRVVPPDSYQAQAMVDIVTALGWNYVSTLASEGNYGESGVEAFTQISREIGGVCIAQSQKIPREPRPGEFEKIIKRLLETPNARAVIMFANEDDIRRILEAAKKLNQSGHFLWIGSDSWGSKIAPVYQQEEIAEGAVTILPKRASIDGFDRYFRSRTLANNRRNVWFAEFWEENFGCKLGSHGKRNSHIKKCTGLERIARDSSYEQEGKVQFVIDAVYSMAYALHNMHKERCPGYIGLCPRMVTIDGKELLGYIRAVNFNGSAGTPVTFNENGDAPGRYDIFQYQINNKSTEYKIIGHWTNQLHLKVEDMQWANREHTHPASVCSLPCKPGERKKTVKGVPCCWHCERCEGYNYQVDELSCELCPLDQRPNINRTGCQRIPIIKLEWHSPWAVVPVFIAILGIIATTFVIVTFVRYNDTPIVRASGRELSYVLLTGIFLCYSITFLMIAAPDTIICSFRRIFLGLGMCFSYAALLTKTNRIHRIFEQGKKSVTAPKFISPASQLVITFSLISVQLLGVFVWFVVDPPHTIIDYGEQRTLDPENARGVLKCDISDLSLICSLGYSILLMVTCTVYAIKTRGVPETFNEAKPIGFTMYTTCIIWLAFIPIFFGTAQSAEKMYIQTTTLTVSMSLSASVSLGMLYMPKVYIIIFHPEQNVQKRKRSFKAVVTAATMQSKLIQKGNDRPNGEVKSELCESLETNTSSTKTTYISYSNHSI
In the case of `O=C1CCCC(=O)C1=C1SCCS1`, the z-score is -0.126. The compound `COc1ccc(OC)c(-n2c(CN3CCC(C(N)=O)CC3)nc3ccccc3c2=O)c1` showed a z-score of 0.343.

`CCc1cc(C(=O)NNC(=S)NCC2CCCO2)cs1` (stereo unspecified) gave a z-score of 0.102. For the compound `CCOC(=O)CN1C(c2ccc(O)cc2)Nc2ccc(Br)cc2C1c1ccccc1` (stereo unspecified), the z-score was -0.199. The compound `CCOc1ccc(OCC)c(S(=O)(=O)NNC(=O)c2c(C)nc3ccccn23)c1` gave a z-score of -1.42. `Cc1ccc(S(=O)(=O)NC(CC(=O)O)c2ccccc2)cc1` (stereo unspecified) returned a z-score of -0.0583. In turn, `CC1CCC(=NNC(=O)Cc2ccccc2)CC1` (stereo unspecified) gave a z-score of -0.025. For the compound `COc1cc(NC(=O)C(=O)NNC(=O)C2CCCCC2)c(OC)cc1Cl`, the z-score was active: 3.98.

Compound `O=C1CC(C(=O)N2CCOCC2)C2(CCCCC2)O1` (stereo unspecified) returned a z-score of 1.55. For `COC(=O)N/N=C/c1cn(CCCOc2ccc(C)cc2)c2ccccc12` the value was -0.0934; for `CC(C)(C)N1CC(c2nc3ccccc3n2Cc2ccc(F)cc2)CC1=O` (stereo unspecified), -0.126. For `CCc1cc2ccc(OC)cc2nc1SCC(=O)Nc1cc(C)on1` the value was 0.0439; for `COc1ccc(NC(=O)CCN2C(=O)c3ccccc3S2(=O)=O)cc1`, 1.12. For `COc1ccc(Cc2n[nH]c(=O)c3ccccc23)cc1OC` the value was 0.285; for `Cc1ccc(S(=O)(=O)NCCOC(=O)Nc2sc(=S)n(C)c2C)cc1`, -0.14. In the case of `CNC(=O)COC(=O)c1cc(NC(=O)c2ccco2)c(OC)c(OC)c1`, the z-score is -0.166. For the compound `CCC(c1nnnn1C(C)C)N1CCN(C2CCCC2)CC1` (stereo unspecified), the z-score was -0.133. Under `CCNc1nc(C)cc(COC)c1C#N` stands 0.507; under `Cn1c(=O)oc2cc(S(=O)(=O)N3CCc4ccccc4C3)ccc21`, 0.149. On to `Cc1[nH]ccc(=O)c1OCc1c(Cl)cccc1Cl`, for which the z-score is -0.261.

For the compound `CCOC(=O)C1=C(Nc2ccccc2)CC(C)(O)C(C(=O)OCC)C1c1ccc(Cl)cc1` (stereo unspecified), the z-score was -0.445. For the compound `CCn1c(O)c(/C=N/N=C2CCCC2)c2ccc(C3=NNC(=O)CC3)cc21`, the z-score is -0.164. For `CCOc1c(Cl)cnn(-c2ccc(C)cc2)c1=O` the value was 1.19. `CCc1nc(-c2ccc(-c3ccc(OC)cc3)nc2OC)no1`: the z-score is 0.18. For `Cn1nnnc1SCC(=O)N1CCN(c2cccc(Cl)c2)CC1` the value was -0.0243; for `Cc1ccc2c(CC(=O)N3CCN(S(=O)(=O)c4ccc5c(c4)OCCO5)CC3)coc2c1`, -0.362. Turning to `CCc1ccc(C(=O)COc2ccc(NC(C)=O)cc2)cc1`, the z-score was -0.096. Take `Cc1ccc(NC(=O)c2noc3c2CCCCC3)cc1`: the z-score is -0.00303. As to `Cc1ccc(-c2noc(-c3ccccc3C(=O)N3CCOCC3)n2)cc1`, the z-score is -0.231. In turn, `NNc1nc(-c2ccccc2Cl)nc2sc3c(c12)CCCC3` came in with a z-score of -0.295.

`CC1CCC(NC(=O)C2c3ccccc3C(=O)N2CCCN2CCOCC2)CC1` (stereo unspecified) showed a z-score of -0.425. Consider `CCC(CC)c1nnc(NC(=O)CCN2C(=O)c3ccccc3C2=O)s1`, for which the z-score was -0.264. For `Cc1ccc(NC(=O)c2ccc(NCc3ccco3)c([N+](=O)[O-])c2)cc1Cl` the value was -0.0411.

For `CC(CCc1ccccc1)NC(=O)CSc1nnnn1C` (stereo unspecified), the z-score was determined as 0.307.

For the compound `O=c1c2ccccc2nnn1CSc1nnc(-c2ccc3c(c2)OCO3)o1`, the z-score is 0.0266. Take `O=C(NC1(C(F)(F)F)NC(=O)N(Cc2ccccc2)C1=O)c1cccs1` (stereo unspecified): the z-score was -0.255. Under `COCC(=O)OCn1nnc2ccccc2c1=O` stands 0.28; under `CC(=O)c1c(C)[nH]c(C(=O)OCn2nnc3ccccc3c2=O)c1C`, -0.597; under `Cn1c(NCCN2CCOCC2)nc2c1c(=O)n(Cc1cccc(Cl)c1)c(=O)n2C`, -0.615. Under `O=C(CSc1nnc(-c2cccs2)n1-c1ccccc1)N1CCc2ccccc21` stands 0.058; under `C=CCOc1ccc(/C(O)=C2/C(=O)C(=O)N(CCCn3ccnc3)C2c2cccs2)cc1` (stereo unspecified), -0.428. Under `O=C(CSc1nnnn1C1CCCCC1)NCc1ccco1` stands -0.228; under `CC(C)c1ccccc1-n1c(SCc2cc(=O)oc3ccc4ccccc4c23)nnc1-c1cccnc1`, -0.0151; under `COc1cccc(C(O)CC(N)=O)c1` (stereo unspecified), 0.108. On to `CCc1ccc(OCC(=O)NC(=S)Nc2ccc(F)cc2)c(Br)c1`, for which the z-score was 0.182.

On to `Cc1nc(SCC(=O)NCC2CCCO2)c2oc3ccccc3c2n1` (stereo unspecified), for which the z-score is 0.0303. For `CCCC(=O)Nc1nc(C)c(-c2csc(Nc3cc(OC)ccc3OC)n2)s1` the value was -0.282; for `CCN(CC)C(=O)/C(=C/c1ccc2c(c1)OCO2)NC(=O)c1ccc(Br)cc1`, -0.142.

`CCOC(=O)c1c(-c2ccccc2)csc1NC(=O)c1cc(S(=O)(=O)N2CCOCC2)ccc1C` had a z-score of -0.000506. For `O=C(NCCc1c[nH]c2ccccc12)/C(=C\c1cccs1)NC(=O)c1ccccc1` the value was 0.0313; for `Cc1ccc2c(c1)N(Cc1ccccn1)C(=O)C(C)O2` (stereo unspecified), -0.941; for `N#CC12CCCCC1CC1CCCCC1(C#N)N2Cc1ccccn1` (stereo unspecified), -0.31.

For `O=C(N/N=C/c1ccco1)c1ccccc1OCc1ccccc1Cl`, the z-score is -1.38.

For the compound `CCc1ccc(-n2c(C)cc(/C=N/NC(=O)OC)c2C)cc1`, the z-score came to 0.58.

In turn, `Cc1ccc(NC2=C(N3CCCCC3)C(=O)c3ccccc3C2=O)cc1` registered a z-score of -0.184. In turn, `Cc1ccc(NC(=O)c2cccc3c2C(=O)N(C2CCCCC2)C3)cc1` registered a z-score of -0.304.

Turning to `Cc1cccc(NC(=O)CSc2nnnn2-c2cccnc2)c1`, the z-score was -0.00427. For `Cc1nc(NNC(=O)c2ccccc2)cc(-c2ccccc2)n1` the value was -0.00736. `CCOc1ccc(OCC)c(NC(=O)CCS(=O)(=O)c2ccc(Br)s2)c1` returned a z-score of 0.479. Take `CCN(CC)CCN1C(=O)C(=O)/C(=C(/O)c2ccc(OC)cc2)C1c1cccs1` (stereo unspecified): the z-score was -0.0859.

In turn, `CC(C)CCNC(=O)Cc1c(C(=O)O)[nH]c2ccc(Cl)cc12` gave a z-score of 0.538. Under `Cc1ccc(CN2C(=O)CCC2C(=O)NCCCN2CCCCC2C)cc1` (stereo unspecified) stands -0.435.

Compound `Cc1nc(N2CCCC2C(=O)O)c2oc3ccccc3c2n1` (stereo unspecified) came in with a z-score of -0.651.

With `O=C(c1cnc2c(c1)COc1ccc(Cl)cc1-2)c1ccccc1O`, the z-score amounted to 0.0372. For the compound `O=C(NC(=O)c1cccc(F)c1)OC[C@@H]1CCCN2CCCC[C@H]12`, the z-score was 0.0626. In turn, `CC(NC(=O)COC(=O)Cc1ccccc1[N+](=O)[O-])c1ccccc1` (stereo unspecified) gave a z-score of -0.0899.

Regarding `Cc1cc(NC(=O)CCN2C(=O)/C(=C/c3ccccc3Cl)SC2=S)no1`, the z-score is -0.0728. For `CCOc1ccc(NC(=O)CCCOc2cc(=O)n(C)c3ccccc23)cc1` the value was 0.038; for `Cc1ccc(NC(=O)C2CCCN2S(=O)(=O)c2ccc3c(c2)CCC(=O)N3)cc1Cl` (stereo unspecified), 0.159.

The compound `OC1CCCN(Cc2ccc3c(c2)Cc2ccccc2-3)C1` (stereo unspecified) returned a z-score of 0.315.

In the case of `CCOC(=O)N1CCN(C(=O)CSc2nc3ccccc3c(=O)n2-c2ccccc2)CC1`, the z-score is -0.915.

Values taken from PubChem BioAssay AID488969 (Vanderbilt High Throughput Screening Facility, 2010).
